Results from PubChem BioAssay AID2202238 (Ras Initiative Chemistry Research Team, Frederick National …, 2025).
The list shows a part of the results. Further columns of the screen follow, without active or inactive calls.

Target: GTPase KRas (Homo sapiens) (UniProt P01116)
Assay: Cysteine mutants labelled by reactive fragments (mass read-out) (AID 2202238)
Parameters: protein at 5 µM with 500 µM competing thiol for 1.5 h
Details: KRAS G12D cysteine mutants, disulfide tethering, MALDI-TOF labeling, stronger effect = higher value, fragment at 500 µM
[1] = measured here: G75C mutant labeling
[2] = measured here: H94C mutant labeling
[3] = measured here: I36C mutant labeling
[4] = measured here: L120C mutant labeling
[5] = measured here: M67C mutant labeling
[6] = measured here: M72C mutant labeling
[7] = measured here: N86C mutant labeling
[8] = measured here: P121C mutant labeling
[9] = measured here: S122C mutant labeling
[10] = measured here: S136C mutant labeling
[11] = measured here: G60C mutant labeling
[12] = measured here: N26C mutant labeling

Chain of UniProt P01116 (P01116 whole entry, looked up, the tested form may be a part): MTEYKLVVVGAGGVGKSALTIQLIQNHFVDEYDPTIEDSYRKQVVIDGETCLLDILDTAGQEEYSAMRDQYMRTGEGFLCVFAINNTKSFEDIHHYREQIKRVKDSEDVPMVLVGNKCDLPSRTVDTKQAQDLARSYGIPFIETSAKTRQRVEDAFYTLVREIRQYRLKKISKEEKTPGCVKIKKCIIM

Compound	percent labeling [1] [%]	percent labeling [2] [%]	percent labeling [3] [%]	percent labeling [4] [%]	percent labeling [5] [%]	percent labeling [6] [%]	percent labeling [7] [%]	percent labeling [8] [%]	percent labeling [9] [%]	percent labeling [10] [%]	percent labeling [11] [%]	percent labeling [12] [%]
O=C(CCS)Nc1c(-c2ccccc2)[nH][nH]c1=O	9.3	26.4	22.8	38.8	26.8	20.8	17.3	31.6	33.3	48.3	–	–
O=C(NCCS)C(CC1CCCO1)C(F)(F)F (stereo not drawn)	11	31.4	21.9	31.9	30.4	19.7	32.4	30.8	31.4	38.9	26.6	25.5
CCOc1ccc(NC(=O)CCS)c2ncccc12	11.4	9.7	18.1	14.5	12.4	31.4	12.6	10.7	14	21.2	–	–
O=C(NCCS)c1cc(-c2cnc3[nH]ccc3c2)ccn1	11.2	14.2	8.5	16.3	11.7	52.7	10.6	12	8.4	11.7	18.6	30.1
Cc1cc(CNC(=O)CCS)ccc1Oc1ccc(F)cc1	13.5	41.9	22.1	18.1	23.5	46.3	17	23.2	10.2	30.6	–	–
O=C(NCCS)c1cn(CC2CCOC2)nn1 (stereo not drawn)	16.3	30.4	25.9	41	27.7	35.8	23	32.3	29.9	47.6	22.1	39.7
Cc1c([C@H]2[C@H](C(=O)NCCS)CC(=O)N2C2CC2)cnn1C	9.1	30.4	27.2	24	33.1	17.2	16.1	30.5	23.6	31.9	27.7	29.7
O=C(NCCS)c1cccc(NC(=O)c2ccc3nc[nH]c3c2)c1	14.4	13.7	8.1	14.4	11.1	34.1	11	8.7	6.6	13.2	25	39.1
O=C(CCc1nc2ccccc2n1-c1ccccc1)NCCS	19.9	37.7	19.6	21.8	27.2	26.8	17.7	18	14.3	40.6	42.5	31.7
O=C(Cn1nc(-c2ccccc2)ccc1=O)NCCS	19.3	35.2	25.2	47.1	49.3	39.9	24.5	32.9	27.9	50	38.4	42.6
Cc1nc2nc(C(=O)NCCS)cc(C(C)(C)C)n2n1	20.7	27.8	20.4	33.4	25.5	58.2	17.2	21.8	19.5	48.6	37.3	37.5
O=C(NCCS)c1cnc(C2CCCO2)s1 (stereo not drawn)	6.8	10.3	10.6	13.1	15.1	14.7	6.1	10.7	16.9	26.2	12.5	22.2
O=C(CCS)NCC1CN(Cc2ccccc2)Cc2nccn2C1 (stereo not drawn)	19.1	26.5	38.6	20	48.7	21.6	20.7	29.2	24.3	51.9	–	–
O=C(CCS)N1CCC(n2c(=O)[nH]c3cccnc32)CC1	17.8	38.3	40.8	36.4	59.4	35	21	34.9	35.6	61.5	–	–
O=C(CCS)Nc1ccc(-n2ccccc2=O)cc1F	19.3	38.6	43.1	34.7	40.2	43.7	41.4	37.2	42.7	54.8	–	–
CC1(C)CN(C(=O)CCS)CCN(C(=O)OC(C)(C)C)C1	21	38.2	39	31.2	44.7	33.7	34.5	31.4	34.8	61.2	–	–
CC1CCc2cc(F)cc3c(=O)c(C(=O)NCCS)cn1c23 (stereo not drawn)	36.5	27.3	17.8	19.2	20.6	61	12.3	22.1	10.9	32.7	33.6	37
O=C(CCS)NC1CCC(C(F)(F)F)CC1 (stereo not drawn)	13.5	33.6	44.9	27.6	27.7	34.6	33.4	31.6	34.4	52.3	–	–
CCc1nc(COc2ccc(C(=O)NCCS)cc2)no1	12.2	22.9	19.7	23.7	18.1	31.3	20.4	17.6	16.7	24.1	23.7	33
O=C(CCS)Nc1ccc(Oc2ccc(F)cc2)c2ccncc12	18.2	9.8	25.9	11.4	13.2	25.7	21.2	11.2	3.2	23.2	–	–
O=C(CCS)NCc1cc(=O)[nH]c(C2CC2)n1	10.1	25.2	42.7	29.4	37.1	14.6	32.1	29.8	31	54.6	–	–
Cc1nc(NC(=O)CCS)sc1Cc1ccccc1	13.7	15.3	20.1	25	19.8	32.5	17.7	11.3	8.2	26.1	–	–
O=C(CCS)Nc1cnn(-c2ccccc2)c1	10.9	17.3	22.3	14.3	18.9	47.6	9.1	16	14.6	34.3	–	–
O=C1NC(=O)C2(CCC(C(=O)NCCS)CC2)N1 (stereo not drawn)	14.1	42.3	31	37.1	33.5	25.1	30.2	33.7	36.3	49.5	37.2	44.8
O=C(CCS)Nc1ccnn1Cc1ccc(Cl)cc1	26.3	36.7	36.6	21.5	34.8	52.2	27	27.4	27.3	39.7	–	–
COCc1nc2sc(C(=O)NCCS)c(C)c2c(=O)[nH]1	17.5	22.2	19.7	16.1	22.9	48.2	22.5	16.5	14.8	33.8	26.9	44.6
O=C(NCCS)C1CCCN(c2ncnc3sccc23)C1 (stereo not drawn)	19.6	26.8	22.8	17.6	41.6	27.2	17.9	20.5	15.2	35.8	44.3	40.5
